# Assay results from the supplement of paper PMC4466236.
# In all, about 33,000 sequences were measured (“E-score (dimensionless, -0.5 to 0.5)”: median about -0.058, highest 2% from about 0.35 on). The list shows a part of the results.
# Tested on: MvaT
# Experiment: PBM 8-mer E-score (mean of HK and ME arrays) (E-score (dimensionless, -0.5 to 0.5)); higher = stronger relative binding preference; most listed sequences are background and not binding sites
# Procedure: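 Protein binding microarray: GST-tagged full-length MvaT (P. aeruginosa PAO1) bound to two universal double-stranded 60-mer arrays (ME and HK), each with a constant 25-mer primer and a variable 35-mer region covering all 8-mers. The 8-mer E-score (rank-based, range -0.5 to 0.5, >0.45 = specific binding) is the mean of the two arrays.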
row,Sequence,PBM 8-mer E-score
1,ATTTCACC,0.0547
2,CAACGTTC,-0.089
3,TACCCCGA,-0.154
4,GTACAAAA,0.139
5,ACTCAAGG,-0.0759
6,ATCGTGTG,-0.108
7,CTGTTGAA,0.00388
8,AGGTTGGA,-0.0834
9,CTTTCCTA,0.101
10,CATAGCTA,-0.1
11,ATGGAGAG,-0.196
12,CGAGGCCA,-0.218
13,GTCGGATA,-0.0634
14,ACTATATC,0.268
15,CCCGTGAC,-0.261
16,AGGCGACG,-0.145
17,GGGGACCC,-0.266
18,AATCTCCT,-0.109
19,CAGGGCGC,-0.198
20,CGCGGAAC,-0.0582
21,GGCGACAA,0.0266
22,ACAGCCAA,0.141
23,TCAGTCAA,-0.0838
24,GATTGCGC,-0.0694
25,AGCGGAGA,-0.0867

row,Sequence,PBM 8-mer E-score
1,ACAAGGGC,-0.163
2,AGTGTAAG,0.173
3,CCCTAAGG,-0.289
4,CAAGGTAA,-0.0084
5,ATGGATTG,-0.117
6,CTCTTATC,-0.0531
7,CTTATCAA,0.149
8,AAAATCAG,0.0744
9,AGAGAAGC,-0.0705
10,GGCTGGCA,-0.241
11,GCTCTACA,-0.0761
12,AGTACTAC,0.202
13,ATTCATAC,0.164
14,AACCATCA,-0.0905
15,GATTTTAA,0.248
16,ACAACAGG,0.0643
17,CTAAAAAA,0.0548
18,ATGAGTGC,0.0329
19,ATGCAAAT,0.217
20,ACCGTCTC,-0.24
21,CCGTTGAC,-0.2
22,ATGTAAAA,0.247
23,CCTTTCCC,-0.217
24,ATCAAGGA,0.00087
25,ACCGACCA,-0.137

row,Sequence,PBM 8-mer E-score
1,AAAGATCA,0.0885
2,ACACCTAC,-0.0326
3,AGCGGTTA,-0.0779
4,AGGGAGCG,-0.408
5,ATGCCTTC,-0.169
6,CTGGTGTA,0.0332
7,CCATCTCG,-0.185
8,ACGATTGG,-0.0463
9,ATATTCAT,0.245
10,CATACCGG,-0.153
11,GTGAAGGA,-0.187
12,CAAACCGA,0.136
13,CACAGCCC,-0.157
14,GCAAAGAA,0.0997
15,AAAAATTT,0.298
16,ACGAAAAT,0.228
17,ATGAACAC,0.0647
18,GAGCGAGC,-0.273
19,GCTTCGCA,-0.164
20,AACAGGGG,-0.116
21,AGGGCAAG,-0.307
22,ATACGATG,0.0432
23,ACTTCAAG,0.0655
24,ACTGTCTA,0.00521
25,ACGTATGG,-0.0552

row,Sequence,PBM 8-mer E-score
1,TCGTCTAA,-0.0936
2,CCGGGATC,-0.0679
3,GACTCCTC,-0.28
4,AGAGGCCA,-0.0967
5,AGTGCGAG,0.0153
6,ATAGTCTG,0.2
7,CGTATCTC,-0.122
8,AGCCCGAT,-0.192
9,TGTCCCAA,0.187
10,ATCGTGGG,-0.0734
11,ATAGGCAC,-0.0327
12,AGTTAGCA,0.251
13,ACTATACG,0.0773
14,AGCGGTAA,-0.104
15,AATAAAGA,0.344
16,AATGCATA,0.273
17,ACCAGAGG,-0.141
18,ACAATAGG,0.215
19,CGAGTGAG,-0.117
20,GTCTTCGA,-0.0711
21,ACCTGTGC,-0.145
22,GGTTGCTA,-0.00872
23,AGAACACT,0.0433
24,GCGTCATA,-0.0624
25,CTACCAAA,-0.0327

row,Sequence,PBM 8-mer E-score
1,TCTCCAGA,-0.1
2,AAGAGTGA,0.00575
3,CTCCCAAC,-0.108
4,ACTCAGCA,-0.0592
5,CTCGTCGC,-0.208
6,AGGTCAAA,0.0141
7,GACTGGGA,-0.0592
8,ATAGCGAG,-0.0175
9,GACAGGGC,-0.226
10,ACCCTGCT,-0.2
11,CGTCGACA,-0.0858
12,GACAAGCC,-0.248
13,ACTCTCAG,-0.306
14,CCATGAGC,-0.162
15,CTCCGAAC,-0.208
16,ATGTGTTG,0.0944
17,CCGGAAAC,-0.137
18,GGTCAGAA,0.0193
19,GGAATTAA,0.347
20,CATACAAG,0.161
21,AGGCTTGG,-0.273
22,AACCCGCA,0.0923
23,ACATAGTC,0.172
24,GAGTCGAC,-0.185
25,AGAAAGTC,0.145

row,Sequence,PBM 8-mer E-score
1,ATAAATCG,0.255
2,ACTCATCC,0.0413
3,GCTACGAA,-0.148
4,ATGATTGG,-0.0765
5,AAACAGCC,-0.152
6,AGCCTGAC,-0.123
7,GCATGTAA,0.203
8,ATCAGGCA,-0.0666
9,ACCTCTCT,-0.125
10,AAAGCGTA,-0.0749
11,GCACGATA,0.0507
12,ACTAAAGC,-0.00643
13,GACCCACC,-0.106
14,GATACCCA,-0.0407
15,AACGCTCC,-0.0685
16,CAATCTGG,-0.0215
17,TAGATCAA,0.0579
18,CACATTAA,0.305
19,AAAGTGAT,0.155
20,CCCCATGA,-0.118
21,GGACTCCA,-0.112
22,AGAAAACG,-0.00536
23,ACCATCCA,0.022
24,CCATCAAG,-0.184
25,AGCGTTCA,-0.188

row,Sequence,PBM 8-mer E-score
1,GGCAAACC,-0.0556
2,TAACCTCA,0.0481
3,AGCTATGA,-0.0805
4,AAATCTGA,0.186
5,CATCGGAC,-0.146
6,GCGGTGAA,0.0808
7,CCTGGGCA,-0.253
8,ATTAAGCG,0.288
9,ACGTCTAT,0.096
10,CGTCCGGA,-0.159
11,CACGTATA,0.259
12,CATACCTC,-0.0525
13,TCGCTAAA,0.062
14,CACTCACA,0.0194
15,AGGTCCAT,-0.144
16,ACTGTTCA,0.0498
17,CACCGTCC,-0.0556
18,AATCGCCG,-0.0177
19,GCCGGTGA,-0.205
20,CGATATCA,0.106
21,AGGCCGCA,-0.186
22,ATTATATA,0.47
23,CCGACACA,0.0805
24,AGATAAAA,0.178
25,AATTTCGT,0.157

row,Sequence,PBM 8-mer E-score
1,AGTAACGA,0.137
2,GACACATA,0.198
3,AGGAACTC,-0.261
4,CGCTTGAG,-0.194
5,AAGCGACA,-0.0634
6,AAGGTAGT,0.0611
7,AACGCAGC,-0.111
8,GTATCCAA,-0.0284
9,GAATTCAC,0.086
10,ATTGACAG,0.14
11,GAAAGTCC,-0.0159
12,CACCGGAA,-0.0701
13,CCATGTGA,-0.122
14,AAATTAGA,0.191
15,TCCAATCA,-0.187
16,CTCGTTGA,-0.156
17,ACCTTTGA,-0.0994
18,CAGCCGCA,-0.0978
19,ATCCTCAA,0.054
20,GCAATCGA,-0.0801
21,ACGTCATG,-0.11
22,ATTACGCG,0.0807
23,CGGGTAAC,-0.064
24,ACCAGCGA,-0.0283
25,CTGCACAG,-0.113

row,Sequence,PBM 8-mer E-score
1,CACACCAG,-0.111
2,ACGACGCA,-0.191
3,AATCCCCA,-0.152
4,GGGAAGAC,-0.212
5,TAGCTAAA,0.105
6,AGGGATGG,-0.241
7,AGTTTTGC,0.0704
8,CGGACTAA,0.137
9,AGTAGCCC,-0.193
10,CGCAGTTC,-0.0668
11,CCACTAAG,0.145
12,AGTGGCAT,-0.0927
13,GCGAAGCA,-0.256
14,GGTACTAC,-0.167
15,CTTCGGGC,-0.194
16,CACCGATG,-0.205
17,CCCGATTA,0.0691
18,AGGACTGC,-0.226
19,AGACTCAG,-0.191
